{
  "source": "the supplement of paper PMC4604168 (melanoma cell lines)",
  "note": "This is one part of the list. Repeats are few or missing, and single values can be far off.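 Further: cells treated in 1,536-well plates, then fixed and DAPI-stained, with nuclei counted from automated high-throughput microscope images.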",
  "data": [
    {"tested_on": "RVH-421", "assay": "cell count relative to DMSO control; melanoma cells; higher = more viable cells", "conditions": "library dose: standard library concentration; 72 h", "units": {"cell count": "%"}, "values": [
      {"molecule": "CN1CCN(c2ccc3nc(-c4c(N)c5c(F)cccc5[nH]c4=O)[nH]c3c2)CC1", "note": "[Dovitinib] + O=C(O)C(=O)Nc1sc2c(c1C(=O)O)CCNC2 [TCS401] (first compound 0.5 µM, partner dose 8.33333 µM)", "cell count": 71.5},
      {"molecule": "C[C@@H](Oc1cc(-c2cnn(C3CCNCC3)c2)cnc1N)c1c(Cl)ccc(F)c1Cl", "note": "[Crizotinib] + Cn1nnc2c(C(N)=O)ncn2c1=O [temozolomide] (first compound 1 µM, partner dose 10 µM)", "cell count": 87.2},
      {"molecule": "C=CCNC1=C2C[C@@H](C)C[C@H](OC)[C@H](O)[C@@H](C)/C=C(\\C)[C@H](OC(N)=O)[C@@H](OC)/C=C\\C=C(/C)C(=O)NC(=CC1=O)C2=O", "note": "[Tanespimycin] + OCCn1cc(-c2cnc3nnn(Cc4ccc5ncccc5c4)c3n2)cn1 [PF04217903] (first compound 0.01 µM, partner dose 5 µM)", "cell count": 69.2},
      {"molecule": "C[C@@H](Oc1cc(-c2cnn(C3CCNCC3)c2)cnc1N)c1c(Cl)ccc(F)c1Cl", "note": "[Crizotinib] + C=CCn1c(=O)c2cnc(Nc3ccc(N4CCN(C)CC4)cc3)nc2n1-c1cccc(C(C)(C)O)n1 [MK1775] (first compound 1 µM, partner dose 0.1 µM)", "cell count": 56.6},
      {"molecule": "C=CCNC1=C2C[C@@H](C)C[C@H](OC)[C@H](O)[C@@H](C)/C=C(\\C)[C@H](OC(N)=O)[C@@H](OC)/C=C\\C=C(/C)C(=O)NC(=CC1=O)C2=O", "note": "[Tanespimycin] + OCc1c[nH]c2ccccc12 [Indole-3-carbinol] (first compound 0.01 µM, partner dose 4 µM)", "cell count": 112},
      {"molecule": "CS(=O)(=O)CCNCc1ccc(-c2ccc3ncnc(Nc4ccc(OCc5cccc(F)c5)c(Cl)c4)c3c2)o1", "note": "[lapatinib] + NC(=O)Nc1cc(-c2cccc(F)c2)sc1C(=O)N[C@H]1CCCNC1 [AZD7762] (first compound 4 µM, partner dose 0.1 µM)", "cell count": 108},
      {"molecule": "CN1CCN(c2ccc3nc(-c4c(N)c5c(F)cccc5[nH]c4=O)[nH]c3c2)CC1", "note": "[Dovitinib] + Nc1ncn([C@H]2C[C@H](O)[C@@H](CO)O2)c(=O)n1 [decitabine] (first compound 0.5 µM, partner dose 0.5 µM)", "cell count": 99.3},
      {"molecule": "CN1CCN(c2ccc3nc(-c4c(N)c5c(F)cccc5[nH]c4=O)[nH]c3c2)CC1", "note": "[Dovitinib] + COc1cc2ncnc(Nc3ccc(Oc4ccccc4)cc3)c2cc1OC [SrcI1] (first compound 0.5 µM, partner dose 10 µM)", "cell count": 131},
      {"molecule": "CNC(=O)c1cc(Oc2ccc(NC(=O)Nc3ccc(Cl)c(C(F)(F)F)c3)cc2)ccn1", "note": "[sorafenib] + COc1cc2ncnc(Nc3ccc(Oc4ccccc4)cc3)c2cc1OC [SrcI1] (first compound 2 µM, partner dose 10 µM)", "cell count": 97.4},
      {"molecule": "CS(=O)(=O)CCNCc1ccc(-c2ccc3ncnc(Nc4ccc(OCc5cccc(F)c5)c(Cl)c4)c3c2)o1", "note": "[lapatinib] + COc1ccc(COc2ccc(Cc3cnc(N)nc3N)cc2OC)cc1 [GW2580] (first compound 4 µM, partner dose 5 µM)", "cell count": 78.3},
      {"molecule": "CN1CCN(c2ccc3nc(-c4c(N)c5c(F)cccc5[nH]c4=O)[nH]c3c2)CC1", "note": "[Dovitinib] + COc1ccc(COc2ccc(Cc3cnc(N)nc3N)cc2OC)cc1 [GW2580] (first compound 0.5 µM, partner dose 5 µM)", "cell count": 83.4},
      {"molecule": "C[C@@H](Oc1cc(-c2cnn(C3CCNCC3)c2)cnc1N)c1c(Cl)ccc(F)c1Cl", "note": "[Crizotinib] + c1cc(-c2cnn3cc(-c4ccc(OCCN5CCCCC5)cc4)cnc23)ccn1 [Dorsomorphin] (first compound 1 µM, partner dose 2 µM)", "cell count": 89.9},
      {"molecule": "C=CCNC1=C2C[C@@H](C)C[C@H](OC)[C@H](O)[C@@H](C)/C=C(\\C)[C@H](OC(N)=O)[C@@H](OC)/C=C\\C=C(/C)C(=O)NC(=CC1=O)C2=O", "note": "[Tanespimycin] + Cc1cc([N+](=O)[O-])ccc1NS(=O)(=O)c1cc(Cl)ccc1Cl [FH535] (first compound 0.01 µM, partner dose 5 µM)", "cell count": 68},
      {"molecule": "C=CCNC1=C2C[C@@H](C)C[C@H](OC)[C@H](O)[C@@H](C)/C=C(\\C)[C@H](OC(N)=O)[C@@H](OC)/C=C\\C=C(/C)C(=O)NC(=CC1=O)C2=O", "note": "[Tanespimycin] + C[C@]1(c2nc3c(C(N)=O)cccc3[nH]2)CCCN1 [Veliparib] (first compound 0.01 µM, partner dose 7 µM)", "cell count": 95.7}
    ]}
  ]
}
